Reference: a compilation of properties of binary mixtures (doi:10.1016/j.jct.2014.06.022)
Some of these densities may be calculated back from excess volumes.

Assay: xn = mol fraction of the nth substance listed
Conditions: 100 kPa

CCCCCC[n+]1ccn(C)c1.NC(CCC(=O)O)C(=O)[O-] + O
mass density [kg/m3]
Conditions	308.15 K	313.15 K	318.15 K	323.15 K	328.15 K	333.15 K	338.15 K	343.15 K
x1 = 0.7806	1107.3	1104.8	1101.7	1099.9	–	1094.6	1091.9	–
x1 = 0.8042	1109.1	1106.6	–	1101.6	1099.3	1097.3	1094.6	–
x1 = 0.8317	1112	1109.5	1106.4	1104.5	1102.1	–	–	1094.8
x1 = 0.8442	1113.7	1111.2	1108.1	–	1103.8	1100.9	1098.3	–
x1 = 0.8743	–	1114	1110.9	1109	–	1103.8	1101.2	1099.3

CCCCC[n+]1ccn(C)c1.NC(CCC(=O)O)C(=O)[O-] + O
mass density [kg/m3]
Conditions	308.15 K	313.15 K	318.15 K	323.15 K	328.15 K	333.15 K	338.15 K	343.15 K
x1 = 0.7926	1138.3	–	1133.1	1130.7	1128	1125.5	1122.6	1120
x1 = 0.8113	1140.1	–	1134.9	1132.4	–	1127.2	1124.3	1121.8
x1 = 0.8285	–	1140.5	1137.8	1135.3	–	1130.1	1127.2	1124.7
x1 = 0.844	1144.7	–	1139.5	1136.9	1134.3	1131.8	1129	1126.4
x1 = 0.8676	–	1145	1142.3	1139.8	–	–	1131.9	1129.2
